Measurements: ChEMBL document CHEMBL4888484, “Replenishing the malaria drug discovery pipeline: Screening and hit evaluation of the MMV Hit Generation Library 1 (HGL1) against asexual blood stage Plasmodium falciparum ,using a nano luciferase reporter read-out” (2022)
In all, about 150,000 compounds went through this assay and about 540 (0.36%) showed an effect of 50% or more. The list shows a part of the results.

Tested on: Plasmodium falciparum
Experiment: Primary screen in NF54 nanoGlo assay, in single point, at 2uM, 72h; a lower Z score goes with more inhibition
Assay type: functional, Erythrocyte
Conditions: timepoint 72 hour

SMILES | % Inhibition [%] | Z score
CC(C)(C)OC(=O)N1CCC[C@H]1C(=O)N1CCCCCCC1 | -9 | 1
Cc1cc(CC(=O)N(Cc2csc(C)n2)c2ccc(F)cc2)no1 | -16 | 2.53
Cc1cccc(-c2nocc2CCC(=O)NCc2cccs2)c1 | -12 | 1.59
CN1C(C(=O)N2CCN(C(=O)c3ccco3)CC2)=CC(c2ccco2)=NS1(=O)=O | -10 | 1.91
Cc1c(C(=O)N[C@@H](CC(N)=O)C2CCCCC2)cnn1C1CCCC1 | -6 | 0.89
CC(C)N(C(=O)Cn1ccncc1=O)C(C)C | -10 | 1.46
O=C(c1nc2ncccn2n1)N1CCCO[C@@H](CN2CCCC2)C1 | -6 | 0.5
O=c1c2ccncc2ncn1CC1(O)CCCCC1 | -2 | 0.39
COCC1(C(=O)N(C)Cc2cc(-c3cccs3)n[nH]2)CCC1 | 1 | -0.2
O=C(Nc1ccc2oc(-c3ccc4ccccc4c3)nc2c1)c1ccc(Cl)c(Cl)c1 | -4 | 0.75
COc1cccc([C@H]2C[C@H](N(C)C(=O)c3ccc(C(=O)O)cc3)C2)c1 | -16 | 3.11
COc1cccc(CC(=O)N2CCC(F)(C(=O)N3CCCC3)CC2)c1 | 4 | -0.77
COc1cc(C(=O)N2CC[C@H]3[C@H](CCC(=O)N3CCCO)C2)ccn1 | 1 | -0.12
Nc1nccnc1C(=O)Nc1ccc(OCC2CC2)cc1 | 2 | -0.34
CN(C[C@H]1CCOC1)OCc1ccccc1 | -6 | 0.89
Cn1cnc2[nH]c(=O)cc(C(=O)NCc3n[nH]c(C(C)(C)C)n3)c21 | -14 | 1.72
O=C(NCc1cccc(F)c1)c1cc(OCc2ccccc2)nc2ccccc12 | -7 | 0.65
CN(C)c1ncc2c(n1)CCC[C@@H]2NC1CCOCC1 | -5 | 0.86
FC(F)(F)C1CCN(Cc2ccccn2)CC1 | -1 | 0.19
CCn1c2ccccc2c2nnc(N3CCN(c4cc(Cl)ccc4C)CC3)nc21 | -10 | 1.93
Cc1cnc(C2CC2)n1[C@H]1CCN(Cc2cn(C)c3ccccc23)C1 | -8 | 0.96

SMILES | % Inhibition [%] | Z score
Cn1c(C(=O)N2CCN(c3ccccn3)CC2)cc2cc(F)ccc21 | -5 | 0.6
CN(C(=O)NC1CCCCC1)C1CCN(c2ccccn2)CC1 | -1 | 0.17
CNc1ncccc1C(=O)N[C@@H]1COCC[C@@H]1OCc1ccccc1 | -10 | 0.96
O=C(NCc1ccc([C@H](O)c2ccccc2)s1)NC1CCOCC1 | -1 | 0.14
O=C(Nc1cc(CCc2ccccc2)n[nH]1)c1cccc[n+]1[O-] | 12 | -1.36
O=C(CCn1cnnn1)Nc1n[nH]c(-c2ccc(F)c(Cl)c2)n1 | -13 | 1.73
CN(C(=O)c1cccc(OCC(=O)O)c1)[C@H]1CC[C@@H](C(F)(F)F)CC1 | 18 | -2.11
O=C(NC[C@H]1CCCN(Cc2cc3c(cc2Cl)OCO3)C1)c1cccnc1 | 1 | -0.1
C=C(C)COc1ccc(NC(=O)[C@@H]2CCCCCN2C)cc1 | -7 | 0.68
Cc1ccc(S(=O)(=O)NC2CCOC(C(C)C)C2)cc1Br (centres undefined) | -5 | 0.75
C[C@@]1(C(F)F)CN(C(=O)Nc2ccn(-c3ccc(Cl)cc3C#N)n2)CCO1 | -3 | 0.47
COCCn1nnnc1[C@@H]1CN(Cc2ccc(N(C)C)nc2)CCO1 | 1 | -0.13
COc1cccnc1NC(=O)c1cc(C(C)C)oc1C | -1 | 0.13
COc1ccc([C@@H](O)C(=O)N(C)Cc2cnc3ccccc3c2)cc1 | -23 | 3.05
CN(CC(=O)Nc1nc(=O)cn[nH]1)S(=O)(=O)c1ccc(Br)cc1 | 1 | -0.15
CCN(CC(F)(F)F)C(=O)C(=O)Nc1ccccc1Cl | 7 | -0.82
Cc1cccc(C(=O)NC(C)C(=O)N2CCCC2c2csc(C)n2)c1 (centres undefined) | 0 | 0.04
CC1(C)C(=O)NCCN1C(=O)CCS(=O)(=O)c1ccc(Cl)cc1 | 2 | -0.22
Cc1ccc(CNC(=O)[C@]2(C)Cn3cnc(C(=O)NCc4ccc(C)o4)c3C(=O)N2C2CC2)cc1 | -12 | 1.25
CN(CC[C@H]1CCCCN1C)C(=O)c1ncoc1-c1ccc2c(c1)OCCO2 | 2 | -0.19
COc1ccc(F)c(CN2CCC[C@@]3(CCN(C(=O)Cn4cccn4)C3)C2)c1 | 8 | -0.67
